Among all 150,000 compounds or so, about 540 (0.36%) showed an effect of 50% or more. The list shows a part of the results.

For the test, the system named is Plasmodium falciparum. Kind of test: Primary screen in NF54 nanoGlo assay, in single point, at 2uM, 72h; a lower Z score goes with more inhibition. Type of test: functional, Erythrocyte. As to conditions: timepoint 72 hour.
`CCc1nc(C)c(CN2CCC(CCC(=O)Nc3ccccc3)CC2)[nH]1`: the % Inhibition (usually the change of the read-out against control, counted positive when it falls) is -13% and the Z score is given as 1.86.

As for `Cc1nc(Cn2nnc(NC(=O)c3cccc(F)c3)c2C)no1`, the “% Inhibition” value came out at 36% and the Z score is reported as -0.91.

`Cc1ccc(C)c(-n2ncc3c(N4CCCCCC4)ncnc32)c1`: the “% Inhibition” value was -18% and the Z score turned out to be 2.1.

In the case of `CC(Oc1ccc2c(c1)CCC2)C(=O)N1CCCC1c1ccncc1` (centres undefined), the “% Inhibition” value is given as -14% and the Z score turned out to be 1.74.

For `CC1(C)c2[nH]c3ccccc3c2C[C@H]2C(=O)N(CC3CCCO3)CC(=O)N21` (some centres undefined), the “% Inhibition” value is -1% and the Z score was determined as 0.16.

As to `O=S(=O)(Nc1ccc(-c2ccno2)cc1)c1ccc(-c2cnc(C3CC3)o2)cc1`, the “% Inhibition” value is reported as -6% and the Z score came to 1.2.

On to `O=C(c1coc2ccccc12)N(CCO)Cc1cccnc1`, for which the “% Inhibition” value is given as -4% and the Z score turned out to be 0.33.

In the case of `Cc1noc(C)c1C(=O)Nc1ccncc1`, the “% Inhibition” value is on record as -5% and the Z score was determined as 0.79.

On to `O=C([C@@H]1C[C@H](F)CN1S(=O)(=O)c1cc(F)ccc1F)N1CCc2ccccc21`, for which the “% Inhibition” value is -4% and the Z score was 0.52.

`Cc1cc(NC(=O)Nc2ccc3c(c2)OCCO3)n(C)n1`: the “% Inhibition” value is listed as 5% and the Z score is on record as -0.65.

For `CCN(c1nc2nc(C)c(Cl)c(C)n2n1)S(=O)(=O)c1ccc(C)cc1`, the “% Inhibition” value is on record as -1% and the Z score came out at 0.17.

Regarding `Cc1nc([C@H](C)NC(=O)c2coc(COc3ccccc3F)n2)c(C)s1`, the “% Inhibition” value is reported as -7% and the Z score came to 0.99.

In the case of `CCn1cc(Br)c(CC#N)n1`, the “% Inhibition” value is 32% and the Z score is -3.63.

Regarding `CCOC1CC(c2nc(-c3cccc(C(=O)N(C)C)c3)no2)C1` (centres undefined), the “% Inhibition” value is listed as -15% and the Z score came to 1.89.

In the case of `C/C(=C\c1cc(Cl)ccc1O)CN1CC[C@@](N)(C(=O)O)C1`, the “% Inhibition” value is -8% and the Z score is reported as 1.04.

Take `CCc1cc(C2CC2)nc(NS(=O)(=O)c2cnn(CC3CC3)c2)n1`: the “% Inhibition” value is reported as -12% and the Z score is recorded as 1.53.

In the case of `CCOCCn1nc(C)cc1C(=O)N[C@H]1C[C@@H](c2cc(=O)[nH]c(N)n2)C1`, the “% Inhibition” value is -25% and the Z score came out at 3.15.

Turning to `COc1nccc(CN[C@@]2(CO)CCCc3ccccc32)c1F`, the “% Inhibition” value is recorded as 6% and the Z score is on record as -0.63.

With `CCOc1cccc(-c2noc(-c3nnn(Cc4nc(-c5ccccc5OC)oc4C)c3C)n2)c1`, the “% Inhibition” value is -5% and the Z score stood at 0.76.

In the case of `CCOC1CCN(C(=O)N[C@H](c2ccc(F)cc2)C2CCC2)CC1`, the “% Inhibition” value is listed as -7% and the Z score was found to be 0.84.

Take `NC(=O)c1cc(Cl)cc(S(=O)(=O)N2CCOCC23CCC3)c1`: the “% Inhibition” value is reported as -4% and the Z score was determined as 0.33.

As for `CCN1CCN(C[C@@H]2CN(c3ccc(Cl)cn3)C[C@@H]2CO)CC1`, the “% Inhibition” value is listed as -10% and the Z score amounted to 1.36.

Turning to `CCc1c(C)c(C(=O)N[C@@H](C)c2ccccc2)n(Cc2ccc(C)cc2)c1C`, the “% Inhibition” value is given as -6% and the Z score was determined as 1.04.

`Cc1[nH]c2ccccc2c1C(c1ccc(Br)o1)c1c(C)[nH]c2ccccc12`: the “% Inhibition” value came out at 10% and the Z score was -1.07.

In the case of `O[C@H]1[C@H](NCc2ccco2)[C@H]2CO[C@H](O2)[C@@H]1N1CCCCC1`, the “% Inhibition” value is reported as 31% and the Z score was -3.5.

Turning to `Cc1c(C(=O)Nc2ccc(Oc3ccncc3)c(Cl)c2)nnn1[C@H]1CCNC1`, the “% Inhibition” value was 6% and the Z score is given as -1.15.

Regarding `c1cn2c(n1)CN(Cc1nc(-c3ccsc3)no1)CC2`, the “% Inhibition” value is recorded as 1% and the Z score is recorded as -0.21.

On to `Cc1sc(-c2noc(C3CC3)n2)cc1NC(=O)c1ccc2c(c1)OCO2`, for which the “% Inhibition” value is -1% and the Z score turned out to be 0.06.

In the case of `CCc1ccc(-c2ccc(=O)n(CCc3nc(-c4ccccc4)no3)n2)cc1`, the “% Inhibition” value was -3% and the Z score was 0.57.

As for `Cc1ccc(NC(=O)CC(=O)N2CCN(Cc3ccc4c(c3)OCO4)C(=O)C2)cc1`, the “% Inhibition” value is -8% and the Z score stood at 1.62.

For `O=C(c1c[nH]c2ncc(Br)cc12)N1C[C@@H]2[C@@H](CF)[C@@H]2C1`, the “% Inhibition” value is -1% and the Z score is recorded as 0.1.

For `Cc1ccc2nnc(-c3ccccc3)c(C(=O)Nc3ccc(F)cc3Cl)c2c1`, the “% Inhibition” value is given as -7% and the Z score is listed as 0.84.

In the case of `Cc1cc2c(cc1C)NC1(CCCCCC1)C(NCc1ccc3c(c1)OCO3)=N2`, the “% Inhibition” value was -6% and the Z score stood at 0.73.

In the case of `CCN(CCC(F)(F)F)S(=O)(=O)N1CC(C)OCC1C` (centres undefined), the “% Inhibition” value is -3% and the Z score was 0.49.

`CO[C@@H](C)c1noc(CN(C)C(=O)c2ccc(Cl)c3occc23)n1`: the “% Inhibition” value was -10% and the Z score was 1.29.

With `CN1CCCCC[C@H]1C(=O)NC1(C)CCCCCC1`, the “% Inhibition” value was 5% and the Z score is listed as -0.81.

`Cc1cc(F)c(CN[C@H]2CCn3ccnc3C2)c(Cl)c1`: the “% Inhibition” value is -7% and the Z score came to 1.31.

Consider `CC(C)[C@H](C)N(C(=O)CNC(=O)c1ccc(F)cc1F)C1CC1`, for which the “% Inhibition” value is reported as -10% and the Z score is given as 1.83.

As to `CC1Cc2cc(F)ccc2C(C)N1C(=O)c1cc(C(=O)O)ccn1` (centres undefined), the “% Inhibition” value stood at 4% and the Z score is -0.51.

Regarding `COC(=O)N(C)c1ccc(N[C@H]2CCCN(c3ccccc3Cl)C2=O)cc1`, the “% Inhibition” value worked out at 13% and the Z score was -1.52.

For the compound `CC(C)(c1noc(-c2ccc(S(C)(=O)=O)s2)n1)C1CCC1`, the “% Inhibition” value is given as -13% and the Z score is on record as 1.95.

`Cc1ccccc1Cn1cnc2c1c(=O)n(C[C@H]1CCCO1)c(=O)n2-c1ccc(Cl)cc1`: the “% Inhibition” value is given as -21% and the Z score was determined as 2.02.

Turning to `CCC(CC#N)NC(=O)C(C)(C)[C@H]1CCC[C@@H](C(F)(F)F)N1` (some centres undefined), the “% Inhibition” value was -4% and the Z score was 0.7.

For the compound `CC1CCC2C(C1)c1c(nc(O)n(Cc3ccccc3)c1=O)OC2(C)C` (centres undefined), the “% Inhibition” value is given as -2% and the Z score worked out at 0.43.

As for `O=c1c2c(ccn1C[C@H]1CCCO1)ccn2Cc1cccnc1`, the “% Inhibition” value is given as -5% and the Z score came to 0.86.

Regarding `COc1ccc(S(=O)(=O)N(CCC(=O)N2CCNCC2)Cc2ccc(C)cc2)cc1`, the “% Inhibition” value was 5% and the Z score was -0.85.

Regarding `CCOC(=O)C1(CC2CC2)CCN(Cc2ccc(C(=O)OC)cc2)CC1`, the “% Inhibition” value is given as -4% and the Z score is given as 0.52.

`CCC(=O)Nc1ccc(N2CCCN(C(=O)Nc3cccc(C(F)(F)F)c3)CC2)c(C(=O)NCc2ccc(F)cc2)c1`: the “% Inhibition” value is reported as -16% and the Z score amounted to 1.72.

`COc1ccc2c(c1)N1CCN(Cc3ccc(Cl)cc3)CC1C(C(=O)N1CCOCC1)C2` (centres undefined): the “% Inhibition” value is -7% and the Z score is on record as 0.86.

With `O=C(CCc1cccs1)N1CCC(OC[C@H]2CCCO2)CC1`, the “% Inhibition” value is -7% and the Z score was determined as 1.16.

Turning to `O=C(CCCCC(=O)Nc1nc(-c2ccccc2)cs1)Nc1nc(-c2ccccc2)cs1`, the “% Inhibition” value is -5% and the Z score was 0.53.

Regarding `CCCN(CCC)C(=O)Cn1c(=O)n(CCc2cccs2)c(=O)c2ccccc21`, the “% Inhibition” value is given as -16% and the Z score is recorded as 2.53.

(Values after ChEMBL document CHEMBL4888484, “Replenishing the malaria drug discovery pipeline: Screening and hit evaluation of the MMV Hit Generation Library 1 (HGL1) against asexual blood stage Plasmodium falciparum ,using a nano luciferase reporter read-out” (2022).)
